Reference: patent US8633183B2 (priority 2010, dated 2014)

Legend:
[1] = system: U87MG human glioblastoma cell line; experiment: cells; conditions: U-87 MG, read-out: EC50 U87MG
BT474 = experiment: cells; conditions: Homo sapiens, BT-474, read-out: EC50 BT474

## CCc1ncnc(-c2ccc(C(=O)N3CCC(C)(O)CC3)c(C)c2)c1C#Cc1ccc(N)nc1 [Example E-122]
[1]
  EC50: 55.7 nM

## CCc1ncnc(-c2ccc(C(=O)N3CCC(N4CCCCC4)CC3)c(C)c2)c1C#Cc1ccc(N)nc1 [Example E-109]
[1]
  EC50: 82.8 nM

## CCc1ncnc(-c2ccc(C(=O)N3CCC(C(C)(C)O)CC3)c(C)c2)c1C#Cc1ccc(N)nc1 [Example E-87]
[1]
  EC50: 147 nM

## CCc1ncnc(-c2ccc(C(=O)N3CCN(S(=O)(=O)CC)CC3)c(C)c2)c1C#Cc1ccc(N)nc1 [Example E-106]
[1]
  EC50: 44.3 nM

## CCc1ncnc(-c2cc(F)c(C(=O)N3CCN(C(C)C)CC3)c(F)c2)c1C#Cc1ccc(N)nc1 [Example E-2]
[1]
  EC50: 45.2 nM

## CCc1ncnc(-c2cc(F)c(C(=O)N3CCN(C4COC4)CC3)c(Cl)c2)c1C#Cc1ccc(N)nc1 [Example E-282]
BT474
  EC50: 8.61 nM

## CCc1ncnc(-c2cc(F)c(C(=O)N3CCN(CCCS(C)(=O)=O)CC3)c(F)c2)c1C#Cc1ccc(N)nc1 [Example E-146]
BT474
  EC50: 11.9 nM

## CCc1ncnc(-c2cc(F)c(C(=O)N3CCN(CCC#N)CC3)c(F)c2)c1C#Cc1ccc(NC)nc1 [Example E-221]
BT474
  EC50: 33.7 nM

## CCc1ncnc(-c2ccc(C(=O)N3CCN4CCCC[C@H]4C3)c(Cl)c2)c1C#Cc1ccc(N)nc1 [Example E-143]
BT474
  EC50: 22.4 nM

## CCc1ncnc(-c2cc(F)c(C(=O)N3CCC(CN)CC3)c(Cl)c2)c1C#Cc1ccc(N)nc1 [Example E-285]
BT474
  EC50: 12.4 nM

## CCc1ncnc(-c2ccc(C(=O)N3CCn4c(C)cnc4C3)c(F)c2)c1C#Cc1ccc(N)nc1 [Example E-247]
BT474
  EC50: 19.6 nM

## CCc1ncnc(-c2cc(Cl)c(C(=O)N3CCC(C(C)O)CC3)c(Cl)c2)c1C#Cc1ccc(N)nc1 (stereo not shown) [Example E-200]
BT474
  EC50: 9.82 nM

## CCc1ncnc(-c2ccc(C(=O)N3CCN(C(C)COC)CC3)c(F)c2)c1C#Cc1ccc(N)nc1 (stereo not shown) [Example E-291]
BT474
  EC50: 18.2 nM

## CCNc1ccc(C#Cc2c(CC)ncnc2-c2ccc(C(=O)N3CCn4c(C)cnc4C3)c(F)c2)cn1 [Example E-262]
BT474
  EC50: 18.8 nM

## CCc1ncnc(-c2cc(F)c(C(=O)N3CCn4c(COC)nnc4C3)c(F)c2)c1C#Cc1ccc(N)nc1 [Example E-170]
BT474
  EC50: 25.7 nM

## CCc1ncnc(-c2cc(F)c(C(=O)N3CCC(CO)CC3)c(Cl)c2)c1C#Cc1ccc(N)nc1 [Example E-242]
BT474
  EC50: 18.4 nM

## CCc1ncnc(-c2cc(Cl)c(C(=O)N3CCC(CO)CC3)c(Cl)c2)c1C#Cc1ccc(N)nc1 [Example E-205]
BT474
  EC50: 20.1 nM

## CCNc1ccc(C#Cc2c(CC)ncnc2-c2ccc(C(=O)N3CCn4ccnc4C3)c(F)c2)cn1 [Example E-260]
BT474
  EC50: 22.9 nM

## CCc1ncnc(-c2cc(F)c(C(=O)N3CCC(C)(O)CC3)c(F)c2)c1C#Cc1ccc(NC)nc1 [Example E-218]
BT474
  EC50: 57.4 nM

## CCc1ncnc(-c2cc(F)c(C(=O)N3CCC4(CC3)COC4)c(F)c2)c1C#Cc1ccc(N)nc1 [Example E-150]
BT474
  EC50: 20.2 nM

## CCc1ncnc(-c2ccc(C(=O)N3CCN(C4COC4)CC3)c(F)c2)c1C#Cc1ccc(N)nc1C [Example E-280]
BT474
  EC50: 36.6 nM

## CCc1ncnc(-c2ccc(C(=O)N3CCn4ccnc4C3)c(Cl)c2)c1C#Cc1ccc(N)nc1 [Example E-256]
BT474
  EC50: 27.9 nM

## CCc1ncnc(-c2cc(F)c(C(=O)N3CCN(CCN)CC3)c(Cl)c2)c1C#Cc1ccc(N)nc1 [Example E-286]
BT474
  EC50: 29.4 nM

## CCc1ncnc(-c2cc(Cl)c(C(=O)N3CCC(C)(O)CC3)c(Cl)c2)c1C#Cc1ccc(N)nc1 [Example E-203]
BT474
  EC50: 14.9 nM

## CCc1ncnc(-c2ccc(C(=O)N3CCC(C(C)(C)O)CC3)c(F)c2)c1C#Cc1ccc(NC)nc1 [Example E-177]
BT474
  EC50: 57 nM

## CCc1ncnc(-c2cc(F)c(C(=O)N3CCN(C4COC4)CC3)c(F)c2)c1C#Cc1ccc(N)nc1 [Example E-275]
BT474
  EC50: 15.5 nM

## CCc1ncnc(-c2ccc(C(=O)N3CCC(C(C)(C)O)CC3)c(Cl)c2)c1C#Cc1ccc(NC)nc1 [Example E-184]
BT474
  EC50: 39.8 nM

## CCc1ncnc(-c2ccc(C(=O)N3CCN(CC(F)F)CC3)c(Cl)c2)c1C#Cc1ccc(NC)nc1 [Example E-187]
BT474
  EC50: 29.8 nM

## CCc1ncnc(-c2cc(F)c(C(=O)N3CCn4c(C)cnc4C3)c(Cl)c2)c1C#Cc1ccc(N)nc1 [Example E-157]
BT474
  EC50: 18.3 nM

## CCc1ncnc(-c2ccc(C(=O)N3CCN(CC(C)O)CC3)c(F)c2)c1C#Cc1ccc(N)nc1 (stereo not shown) [Example E-296]
BT474
  EC50: 18.5 nM

## CCc1ncnc(-c2ccc(C(=O)N3CCN4CCCC[C@H]4C3)c(F)c2)c1C#Cc1ccc(N)nc1 [Example E-144]
BT474
  EC50: 17.6 nM

## CCc1ncnc(-c2cc(Cl)c(C(=O)N3CCN(CC)CC3)c(Cl)c2)c1C#Cc1ccc(N)nc1 [Example E-198]
BT474
  EC50: 9.84 nM

## CCc1ncnc(-c2cc(Cl)c(C(=O)N3CC[C@@H](N(C)C)C3)c(Cl)c2)c1C#Cc1ccc(N)nc1 [Example E-196]
BT474
  EC50: 45.6 nM

## CCc1ncnc(-c2ccc(C(=O)N3CCN(CCCS(C)(=O)=O)CC3)c(F)c2)c1C#Cc1ccc(N)nc1 [Example E-250]
BT474
  EC50: 37.9 nM

## CCc1ncnc(-c2ccc(C(=O)N3CCn4c(C)cnc4C3)c(Cl)c2)c1C#Cc1ccc(N)nc1 [Example E-254]
BT474
  EC50: 16.6 nM

## CCc1ncnc(-c2cc(F)c(C(=O)N3CCN(CC(F)F)CC3)c(F)c2)c1C#Cc1ccc(NC)nc1 [Example E-217]
BT474
  EC50: 48 nM

## CCc1ncnc(-c2ccc(C(=O)N3CCN(C)CC3)c(Cl)c2)c1C#Cc1ccc(NC)nc1 [Example E-191]
BT474
  EC50: 45 nM

## CCc1ncnc(-c2ccc(C(=O)N3CCn4ccnc4C3)c(F)c2)c1C#Cc1ccc(N)nc1 [Example E-249]
BT474
  EC50: 22.8 nM

## CCc1ncnc(-c2ccc(C(=O)N3CCN(C4CCC4)CC3)c(Cl)c2)c1C#Cc1ccc(N)nc1 [Example E-252]
BT474
  EC50: 15.2 nM

## CCc1ncnc(-c2ccc(C(=O)N3CC[C@H](N(C)C)C3)c(Cl)c2)c1C#Cc1ccc(NC)nc1 [Example E-190]
BT474
  EC50: 82.4 nM

## CCc1ncnc(-c2ccc(C(=O)N3CCN(CCN)CC3)c(Cl)c2)c1C#Cc1ccc(N)nc1 [Example E-284]
BT474
  EC50: 77.8 nM

## CCc1ncnc(-c2ccc(C(=O)N3CCC(N4CCN(C)CC4)CC3)c(F)c2)c1C#Cc1ccc(NC)nc1 [Example E-183]
BT474
  EC50: 104 nM

## CCc1ncnc(-c2ccc(C(=O)N3CCN(C(C)CO)CC3)c(F)c2)c1C#Cc1ccc(N)nc1 (stereo not shown) [Example E-292]
BT474
  EC50: 20.3 nM

## CCNc1ccc(C#Cc2c(CC)ncnc2-c2ccc(C(=O)N3CCC4(CC3)CN(C(=O)OC(C)(C)C)C4)c(F)c2)cn1 [Example E-266]
BT474
  EC50: 273 nM

## C#CCN1CCN(C(=O)c2ccc(-c3ncnc(CC)c3C#Cc3ccc(N)nc3)cc2F)CC1 [Example E-165]
BT474
  EC50: 18.6 nM

## CCc1ncnc(-c2ccc(C(=O)N3CCN(CCNS(C)(=O)=O)CC3)c(F)c2)c1C#Cc1ccc(N)nc1 [Example E-246]
BT474
  EC50: 61.4 nM

## CCc1ncnc(-c2cc(F)c(C(=O)N3CCN(CC(C)(C)O)CC3)c(F)c2)c1C#Cc1ccc(NC)nc1 [Example E-212]
BT474
  EC50: 72.4 nM

## CCc1ncnc(-c2ccc(C(=O)N3CCN(C)CC3)c(C(F)(F)F)c2)c1C#Cc1ccc(N)nc1 [Example E-229]
BT474
  EC50: 48.6 nM

## CCc1ncnc(-c2ccc(C(=O)N3CCn4cnnc4C3)c(F)c2)c1C#Cc1ccc(N)nc1 [Example E-248]
BT474
  EC50: 56.1 nM

## CCc1ncnc(-c2ccc(C(=O)N3CCN(CC)CC3)c(Cl)c2)c1C#Cc1ccc(NC)nc1 [Example E-189]
BT474
  EC50: 44.8 nM

## CCc1ncnc(-c2ccc(C(=O)N3CC[C@@H](N(C)C)C3)c(Cl)c2)c1C#Cc1ccc(NC)nc1 [Example E-188]
BT474
  EC50: 77.5 nM

## CCc1ncnc(-c2cc(F)c(C(=O)N3CCn4cnnc4C3)c(Cl)c2)c1C#Cc1ccc(N)nc1 [Example E-156]
BT474
  EC50: 12.1 nM

## CCc1ncnc(-c2ccc(C(=O)N3CC[C@@H](N(C)C)C3)c(F)c2)c1C#Cc1ccc(NC)nc1 [Example E-180]
BT474
  EC50: 67 nM

## CCc1ncnc(-c2ccc(C(=O)N3CCN(Cc4cc(C)no4)CC3)c(F)c2)c1C#Cc1ccc(N)nc1 [Example E-290]
BT474
  EC50: 14.9 nM

## CCc1ncnc(-c2cc(Cl)c(C(=O)N3CCN4CCC[C@H]4C3)c(Cl)c2)c1C#Cc1ccc(N)nc1 [Example E-194]
BT474
  EC50: 25.1 nM

## CCc1ncnc(-c2ccc(C(=O)N3CCN(CCCS(C)(=O)=O)CC3)c(Cl)c2)c1C#Cc1ccc(N)nc1 [Example E-257]
BT474
  EC50: 44 nM

## CCc1ncnc(-c2cc(F)c(C(=O)N3CCN(CCC#N)CC3)c(Cl)c2)c1C#Cc1ccc(N)nc1 [Example E-243]
BT474
  EC50: 29.8 nM

## CCc1ncnc(-c2cc(F)c(C(=O)N3CCn4cnnc4C3)c(F)c2)c1C#Cc1ccc(N)nc1 [Example E-148]
BT474
  EC50: 33.5 nM

## CCc1ncnc(-c2cc(F)c(C(=O)N3CCn4ccnc4C3)c(F)c2)c1C#Cc1ccc(N)nc1 [Example E-147]
BT474
  EC50: 13.8 nM

## CCc1ncnc(-c2cc(F)c(C(=O)N3CCn4ccnc4C3)c(Cl)c2)c1C#Cc1ccc(N)nc1 [Example E-155]
BT474
  EC50: 23.7 nM

## CCc1ncnc(-c2ccc(C(=O)N3CCC4(CC3)CNC4)c(Cl)c2)c1C#Cc1ccc(N)nc1 [Example E-251]
BT474
  EC50: 588 nM

## CCc1ncnc(-c2cc(F)c(C(=O)N3CCC(C(C)O)CC3)c(Cl)c2)c1C#Cc1ccc(N)nc1 (stereo not shown) [Example E-241]
BT474
  EC50: 16.6 nM

## CCc1ncnc(-c2ccc(C(=O)N3CCN4CCC[C@H]4C3)c(OC(F)(F)F)c2)c1C#Cc1ccc(N)nc1 [Example E-223]
BT474
  EC50: 66.4 nM

## CCc1ncnc(-c2ccc(C(=O)N3CCC4(CC3)CNC4)c(F)c2)c1C#Cc1ccc(N)nc1 [Example E-268]
BT474
  EC50: 438 nM

## CCc1ncnc(-c2ccc(C(=O)N3CC[C@H](N(C)C)C3)c(F)c2)c1C#Cc1ccc(NC)nc1 [Example E-181]
BT474
  EC50: 93.8 nM

## CCc1ncnc(-c2cc(F)c(C(=O)N3CCN4CCC[C@H]4C3)c(F)c2)c1C#Cc1ccc(NC)nc1 [Example E-207]
BT474
  EC50: 58.7 nM

## CCc1ncnc(-c2ccc(C(=O)N3CCC(N4CCOCC4)CC3)c(Cl)c2)c1C#Cc1ccc(NC)nc1 [Example E-185]
BT474
  EC50: 25.9 nM

## CCc1ncnc(-c2cc(F)c(C(=O)NCCN3CCNCC3)c(F)c2)c1C#Cc1ccc(N)nc1 [Example E-174]
BT474
  EC50: 142 nM

## CCc1ncnc(-c2ccc(C(=O)N3CC4(CNC4)C3)c(Cl)c2)c1C#Cc1ccc(N)nc1 [Example E-270]
BT474
  EC50: 213 nM

## CCc1ncnc(-c2cc(F)c(C(=O)N3CCN(CCNS(C)(=O)=O)CC3)c(Cl)c2)c1C#Cc1ccc(N)nc1 [Example E-159]
BT474
  EC50: 19.7 nM
